From article PMC6919601, “Identification of Plasmodium dipeptidyl aminopeptidase allosteric inhibitors by high throughput screening” (PLoS ONE, 2019)
In all, about 110,000 compounds went through this assay and about 230 (0.21%) showed an effect of 50% or more. The list shows a part of the results.

What follows are compounds tested against DPAP1 (Plasmodium falciparum, UniProt Q8IIJ9) (assay: primary screen, percent inhibition; read by cleavage of a fluorogenic dipeptide substrate; higher = more effect of the substance).
Sequence of DPAP1 (Q8IIJ9 whole entry, looked up): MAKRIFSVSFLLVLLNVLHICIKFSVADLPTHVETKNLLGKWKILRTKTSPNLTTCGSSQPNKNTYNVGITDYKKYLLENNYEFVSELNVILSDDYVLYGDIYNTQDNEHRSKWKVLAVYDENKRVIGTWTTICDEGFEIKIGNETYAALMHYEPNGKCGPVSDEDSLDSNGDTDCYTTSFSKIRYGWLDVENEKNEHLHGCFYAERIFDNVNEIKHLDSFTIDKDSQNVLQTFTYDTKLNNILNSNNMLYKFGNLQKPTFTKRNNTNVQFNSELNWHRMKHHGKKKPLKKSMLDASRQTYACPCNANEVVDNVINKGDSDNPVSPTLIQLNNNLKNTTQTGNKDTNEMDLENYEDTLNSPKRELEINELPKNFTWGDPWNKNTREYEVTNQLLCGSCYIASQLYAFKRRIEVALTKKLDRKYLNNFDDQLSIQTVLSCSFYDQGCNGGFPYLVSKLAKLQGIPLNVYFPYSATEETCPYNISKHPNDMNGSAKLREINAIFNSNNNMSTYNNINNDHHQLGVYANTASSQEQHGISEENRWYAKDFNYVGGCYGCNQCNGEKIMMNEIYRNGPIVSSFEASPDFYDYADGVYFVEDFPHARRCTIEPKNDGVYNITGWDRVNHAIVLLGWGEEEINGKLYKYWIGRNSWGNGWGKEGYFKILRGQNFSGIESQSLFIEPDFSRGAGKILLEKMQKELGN
Set-up: species or system P. falciparum D10 trophozoite lysates; single well
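Also: 30 min substrate incubation versus DMSO and 10 µM JCP410 controls.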

Row | Structure (SMILES) | % Inhibition @ 10 uM
1 | Cc1ccc(-c2cc(C(=O)NCc3ccco3)[nH]n2)cc1 | 0.44%
2 | CCOC(=O)N1CCN(C(=O)Cc2c(C(=O)O)n(C)c3ccccc23)CC1 | 2.84%
3 | CC(C)CC(C(=O)NCC#N)c1cccc(-c2csc(CN3CCNCC3)n2)c1 (stereo not shown) | 1.7%
4 | CCOc1ccc(C(=O)N(Cc2ccccc2)c2ccccn2)cc1 | -5.88%
5 | CCOC(=O)C1=C(C)N=c2s/c(=C\c3c(C)[nH]c4ccccc34)c(=O)n2C1c1ccc(OC)cc1 (stereo not shown) | -3.98%
6 | O=C(O)CC(CNS(=O)(=O)c1ccc(Br)cc1)c1ccccc1 (stereo not shown) | -4.49%
7 | COc1cccc(-n2nnc3c(=O)n(CC(=O)N4CCOCC4)cnc32)c1 | -5.79%
8 | O=[N+]([O-])c1cccc(CN2CCSCC2)c1 | -0.127%
9 | CCOC(=O)C1CCN(Cc2cc(Br)c(OC)cc2OC)CC1 | -3.56%
10 | Cc1ccc(S(=O)(=O)NCc2ccc(C(=O)N3CCc4ccccc4C3)cc2)cc1 | -5.22%
11 | CCN1C(=O)C(O)(CC(=O)c2ccccc2)c2cc(Br)ccc21 (stereo not shown) | -0.992%
12 | COc1ccc(Cc2nnc(NC(=O)COc3ccc(Cl)cc3)s2)cc1OC | 4.87%
13 | COc1ccc(C(=O)Nc2sc3c(c2C(N)=O)CCCC3)cc1OC | 2.01%
14 | Cc1noc(C)c1S(=O)(=O)N(CCc1ccccc1)Cc1ccccc1 | 0.128%
15 | O=C(Nc1ccncc1)c1cc2c(ccc3ccccc32)oc1=O | 3.25%
16 | COC(=O)c1ccc(NC(=O)c2cc(O)cc(O)c2)cc1 | 1.24%
17 | COc1ccc(OC)c(CN2CCN(Cc3ccccc3C(F)(F)F)CC2)c1 | 0.611%
18 | CCOC(=O)C1=C(C)N=C(C)/C(=C(/O)OCC)C1c1ccc(O)cc1 (stereo not shown) | -3.77%
19 | Cc1[nH]c2ccccc2c1/C=C(/C#N)C(=O)Nc1ccc(Cl)cc1 | -4.93%
20 | COc1ccc(C2C(C#N)=C(N)Oc3[nH]nc(C)c32)cc1COCC(F)(F)F (stereo not shown) | 2.38%
21 | CCOC(=O)c1sc2nc(N3CCOCC3)c3c(c2c1N)CCCC3 | -2.87%
22 | Cc1nn(C)cc1CNC(=O)c1cc2n(n1)C(C(F)(F)F)CC(c1ccc3c(c1)OCO3)N2 (stereo not shown) | -10%
23 | O=C(NCc1ccco1)c1ccccc1NS(=O)(=O)c1ccc(Br)s1 | -2.92%
24 | Nc1nonc1-c1nc2ccccc2n1CC(=O)Nc1ccccc1Br | -1.43%
25 | COc1cc(NC(=O)c2sc3nc4c(cc3c2N)CCCC4)cc(OC)c1OC | -2.32%

Row | Structure (SMILES) | % Inhibition @ 10 uM
26 | COc1ccc(CCNS(=O)(=O)c2cccc(F)c2)cc1OC | -5.51%
27 | COc1ccc(C(=O)Nn2c(C)nnc2-n2nc(C)cc2C)cc1OC | -1.6%
28 | Clc1ccc(OCCCCCN2CCCCC2)cc1 | 4.34%
29 | CCOC(=O)c1cc(-c2ccccc2)sc1NC(=O)COc1cccc(Br)c1 | -1.1%
30 | COc1ccccc1CC(=O)NCc1nc(-c2ccccc2)no1 | -2.99%
31 | CCc1ccc(N2C(=O)C(Cl)=C(Nc3cccc(OC)c3)C2=O)cc1 | 1.35%
32 | Cc1ccc(C(=O)N2CCN(c3ccc(F)cc3)CC2)cc1C | -0.303%
33 | O=C(Cn1ncc2c3ccccc3nc-2c1O)NC1CCCc2ccccc21 (stereo not shown) | 1.9%
34 | CC(=O)c1c(S)nc(-c2ccccc2)nc1N1CCOCC1 | 4.12%
35 | CCc1ccc(-c2nc(CSCC(=O)N3CCOCC3)c(C)o2)cc1 | 2.37%
36 | CCCCn1c2ccc(C)cc2c2nnc(S)nc21 | 61%
37 | O=C1C2C(c3ccccc3)C=CC(c3ccccc3)C2C(=O)N1c1cccc([N+](=O)[O-])c1 (stereo not shown) | -6.71%
38 | COc1cccc(C(=O)N[C@@H](CSCc2ccccc2)C(=O)NCC#N)c1 | 1.35%
39 | COc1ccccc1C1C(C#N)=C(N)Oc2[nH]nc(-c3ccccc3Cl)c21 (stereo not shown) | 1.03%
40 | O=C(Nc1cccc(Cl)c1Cl)c1cnccn1 | 3.82%
41 | CN1CCc2c(sc3c2C(=O)NC(c2ccc(COc4ccc(Cl)c(Cl)c4)o2)N3)C1 (stereo not shown) | 5.52%
42 | COc1ccc(-c2cc3nc(C)cc(C)n3n2)cc1 | 1.54%
43 | COc1ccc(OCc2ccc(C(=O)N3N=C(C(F)F)CC3(O)C(F)F)cc2)cc1 (stereo not shown) | -3.71%
44 | CC1CCCCC1NC(=O)Cn1ncn2c(cc3sccc32)c1=O (stereo not shown) | 1.8%
45 | Cc1cc(C)nc(/N=C(\N)NCCN2CCOCC2)n1 | -9.24%
46 | Cc1ccc(-c2cc(C(=O)NCCN(C)C)c3ccccc3n2)cc1C | 1.16%
47 | O=C1CCN(CC(=O)c2ccc3cc[nH]c3c2)CC1 | -1.08%
48 | CC1CC(=O)c2cnc(Nc3nc(-c4ccccc4)c4ccccc4n3)nc2C1 (stereo not shown) | 1.72%
49 | C=C(C)[C@@H]1CC=C(CN(C)CCN(CC)CC)CC1 | -3.27%
